Out of some 210,000 compounds screened, about 730 (0.35%) were called active. Inconclusive means that the source gave no clear call. Such entries were picked first, then a sample of the others. Calls come from the whole dose curve; as a rule, active = well fitted inhibition curve with a large enough effect; inconclusive = small, poorly fitted or top-dose-only effect; inactive = no such curve, though single readings can be large or run the other way. Potencies of inconclusive entries are doubtful fits and often do not repeat. More than one record can exist for a structure, and the calls need not agree.
Test: qHTS Assay for Identifying the Cell-Membrane Permeable IMPase Inhibitors: Potentiation with Lithium; note: nearly all actives have a fitted effect of over 50% in size
Conditions: CHO-M1 cells, IP1 TR-FRET (IP-One), carbachol + lithium; series mostly up to 59.4 µM
In short: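 IP1 accumulation measured by competitive TR-FRET in lysed CHO-M1 cells after 30 min compound exposure at 37C, with a small lithium addition to potentiate weak responses. Hill-equation AC50 from ratio and donor-channel data.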
Potency is the fitted concentration of half-maximal effect.

Q: Which Potency does the source give for `COc1ccc(C(=O)CSc2nnc3ccc(-c4ccccn4)nn23)cc1` here?
A: Its Potency is inconclusive: 11.2 µM [inhibitor, partial curve].

Q: Which Potency does the source give for `CN1CCN(C(=O)c2ccc3c(=O)n(-c4ccc(F)cc4)c(=S)[nH]c3c2)CC1` here?
A: Its Potency is inconclusive: 5.01 µM [inhibitor, single point].

Q: With `O=C(COc1ccc2ccccc2c1Br)Nn1cnnc1` as the compound, how does the Potency read?
A: Its Potency is inconclusive: 11.2 µM [inhibitor, partial curve].

Q: For `CCc1nnc(NC(=O)CSc2nc3ccccc3c(=O)n2CCCOC)s1`, which Potency is on record?
A: The Potency was inconclusive: 22.4 µM [inhibitor, single point].

Q: With `CC(C)=CC(=O)Nc1nnc(-c2cccnc2)s1` as the compound, how does the Potency read?
A: The Potency was inconclusive: 10 µM [inhibitor, partial curve].

Q: With `Cc1ccc(-c2n[nH]c(=S)c3ccccc23)cc1` as the compound, how does the Potency read?
A: Its Potency is inconclusive: 31.6 µM [inhibitor, single point].

Q: For `COCC(=O)Nc1c(C(=O)Nc2ccccc2OC)oc2ccccc12`, which Potency is on record?
A: The Potency was inconclusive: 22.4 µM [inhibitor, single point].

Q: Which Potency does the source give for `C/C(Cn1nnc([N+](=O)[O-])n1)=N\NC(=O)c1cccc(Cl)c1` here?
A: Its Potency is inconclusive: 28.2 µM [inhibitor, single point].

Q: With `COc1ccc(OC)c(C(=O)CSc2nc3c(c(=O)n(C)c(=O)n3C)n2C(C)C)c1` as the compound, how does the Potency read?
A: Its Potency is inconclusive: 28.2 µM [inhibitor, single point].

Q: Which Potency does the source give for `C/C(=N\NC(=O)C1CC1)c1ccc(Cl)c(Cl)c1` here?
A: The Potency was inconclusive: 28.2 µM [inhibitor, single point].

Q: Which Potency does the source give for `COc1ccccc1C1/C(=C(/O)c2ccccc2)C(=O)C(=O)N1CCO` (stereo not drawn) here?
A: Its Potency is “inactive”.

Q: Which Potency does the source give for `Cc1ccc(C(=O)c2c[nH]c3c(F)cc(F)cc3c2=O)cc1` here?
A: Its Potency is inconclusive: 12.6 µM [inhibitor, single point].

Q: Which Potency does the source give for `COc1ccccc1C1/C(=C(/O)c2ccc(C)cc2)C(=O)C(=O)N1Cc1ccco1` (stereo not drawn) here?
A: The Potency was inconclusive: 10 µM [inhibitor, partial curve].

Q: Which Potency does the source give for `Cn1c(-c2cc(Br)ccc2O)n[nH]c1=S` here?
A: Its Potency is “inactive”.

Q: Which Potency does the source give for `CC(C)NNC(=O)c1ccncc1` here?
A: Its Potency is inconclusive: 28.2 µM [inhibitor, single point].

Q: Which Potency does the source give for `CC(C)(C)n1nnnc1C(c1ccc(F)cc1)N(Cc1ccc(F)cc1)Cc1ccco1` (stereo not drawn) here?
A: The Potency was “inactive”.

Q: For `O=C(CCn1c(=S)[nH]c2ccccc2c1=O)NCCc1ccc(Cl)cc1`, which Potency is on record?
A: Its Potency is inconclusive: 2.51 µM [inhibitor, full curve, poor fit].

Q: Which Potency does the source give for `O=C(CSCc1nc2c(nnn2Cc2ccc(F)cc2)c(=O)[nH]1)Nc1c(Cl)cc(Cl)cc1Cl` here?
A: The Potency was inconclusive: 11.2 µM [inhibitor, single point].

Q: For `CCOc1ccc(/C(O)=C2/C(=O)C(=O)N(CCOCCO)C2c2ccc(F)cc2)cc1` (stereo not drawn), which Potency is on record?
A: The Potency was active: 11.2 µM.

Q: For `COCCCOc1ccnc(CS(=O)c2nc3ccccc3[nH]2)c1C` (stereo not drawn), which Potency is on record?
A: Its Potency is “inactive”.

Q: With `Cc1cccc(NC(=O)NCc2ccc3c(c2)cc(C)n3C)c1` as the compound, how does the Potency read?
A: Its Potency is inconclusive: 28.2 µM [inhibitor, single point].

Q: For `COc1ccc2nc(SC)c(C#N)cc2c1`, which Potency is on record?
A: The Potency was active: 11.2 µM.

Q: With `O=C1CCCCCC1C1(O)C(=O)Nc2ccc(Br)cc21` (stereo not drawn) as the compound, how does the Potency read?
A: Its Potency is “inactive”.

Q: With `Fc1ccc(-c2csc(=S)[nH]2)cc1` as the compound, how does the Potency read?
A: The Potency was “inactive”.

Q: With `CCOC(=O)CC(=O)CSc1nc(-c2ccc3c(c2)OCO3)cc(C(F)(F)F)c1C#N` as the compound, how does the Potency read?
A: Its Potency is inconclusive: 11.2 µM [inhibitor, single point].

Q: For `CCOc1ccc(-c2nnc(-c3snc(-c4ccc(F)cc4)c3N=CN(C)C)o2)cc1`, which Potency is on record?
A: The Potency was inconclusive: 25.1 µM [inhibitor, single point].

Q: For `Cc1cc(N2C(=O)C(O)=C(C(=O)c3ccco3)C2c2cccnc2)no1` (stereo not drawn), which Potency is on record?
A: Its Potency is inconclusive: 25.1 µM [inhibitor, single point].

Q: For `O=C1CCC(=O)N1CCC(c1ccc(F)cc1)c1ccco1` (stereo not drawn), which Potency is on record?
A: The Potency was “inactive”.

Q: Which Potency does the source give for `O=C(CCCOc1ccc(Cl)cc1Cl)Nc1ccccn1` here?
A: The Potency was “inactive”.

Q: Which Potency does the source give for `O=C(CSc1nc2ccccc2c(=O)n1-c1ccccc1)NCc1ccco1` here?
A: The Potency was inconclusive: 28.2 µM [inhibitor, single point].

Q: Which Potency does the source give for `N#CCC(=O)Nc1ccc(C(=O)NCC(c2ccco2)N2CCCCC2)cc1` (stereo not drawn) here?
A: Its Potency is “inactive”.

Q: Which Potency does the source give for `COc1ccc(C(=O)CCNc2ccc3c(c2)OCCO3)cc1` here?
A: The Potency was “inactive”.

Q: With `COc1ccc(-c2cc(C(=O)Nc3cc(C)nn3-c3ccccc3)no2)cc1` as the compound, how does the Potency read?
A: The Potency was inconclusive: 28.2 µM [inhibitor, single point].

Q: For `CCOC(=O)c1ccc2[nH]c(C)c(CCC(C)=O)c(=O)c2c1`, which Potency is on record?
A: The Potency was inconclusive: 15.8 µM [inhibitor, partial curve].

Q: With `CN(CC(=O)N1CCCc2c1c(=O)oc1ccc(O)cc21)Cc1ccccc1` as the compound, how does the Potency read?
A: Its Potency is “inactive”.

Q: With `CSc1[nH]c(=O)c(C(=O)O)cc1C#N` as the compound, how does the Potency read?
A: Its Potency is inconclusive: 12.6 µM [inhibitor, single point].

Q: For `COc1ccc(CNc2cc(-c3ccccc3CN(C)C)ncn2)c(OC)c1`, which Potency is on record?
A: The Potency was “inactive”.

Q: For `N#Cc1ccc(Oc2ccc(-c3cnc4ccccc4n3)cc2)cc1C#N`, which Potency is on record?
A: Its Potency is active: 2.82 µM.

Q: With `CC1CCc2sc(C(=O)Nc3nnc(SCc4ccc(F)cc4)s3)cc2C1` (stereo not drawn) as the compound, how does the Potency read?
A: Its Potency is inconclusive: 12.6 µM [inhibitor, partial curve, poor fit].

Q: For `CCNc1ncc2nc(-c3ccc(OC)cc3)c(=O)n(Cc3cccc(OC)c3)c2n1`, which Potency is on record?
A: The Potency was inconclusive: 11.2 µM [inhibitor, single point].

Q: With `O=c1c(-c2ccccc2)nc2cnc(N3CCOCC3)nc2n1Cc1ccc(F)cc1` as the compound, how does the Potency read?
A: Its Potency is inconclusive: 7.94 µM [inhibitor, partial curve].

Q: With `CC1CN(S(=O)(=O)c2ccc(Cl)c(C(F)(F)F)c2)CC(C)O1` (stereo not drawn) as the compound, how does the Potency read?
A: Its Potency is active: 10 µM.

Q: For `Cn1ccnc1SCC(=O)Nc1cccc([N+](=O)[O-])c1`, which Potency is on record?
A: Its Potency is inconclusive: 2.82 µM [inhibitor, single point].

Q: For `Cc1ccc(OC(=O)c2ccccc2P(=O)(O)O)cc1`, which Potency is on record?
A: Its Potency is inconclusive: 11.2 µM [inhibitor, partial curve].

Q: Which Potency does the source give for `Cc1cc(C)c(C#N)c(SCCS(=O)(=O)Cc2ccc(Cl)cc2)n1` here?
A: The Potency was inconclusive: 2 µM [inhibitor, partial curve, poor fit].

Q: Which Potency does the source give for `Cc1cc(C)n(Cc2ccc(Cl)cc2Cl)c(=O)c1S(=O)(=O)c1ccccc1` here?
A: Its Potency is inconclusive: 28.2 µM [inhibitor, single point].

Q: Which Potency does the source give for `Cc1ccc(C(=O)NNC(=S)NC(=O)c2ccc(Cl)cc2)cc1` here?
A: Its Potency is “inactive”.

Q: With `Cc1c(Cl)c(-c2n[nH]c(=S)n2-c2ccc(F)cc2)nn1C` as the compound, how does the Potency read?
A: Its Potency is active: 11.2 µM.

Q: With `CCOc1cc(CN2CCN(c3ccc(C(C)=O)cc3)CC2)ccc1OC` as the compound, how does the Potency read?
A: Its Potency is “inactive”.

Q: With `Cn1c(=O)cc(SCC(=O)NCC2CCCO2)c2ccc(Cl)cc21` (stereo not drawn) as the compound, how does the Potency read?
A: The Potency was inconclusive: 10 µM [inhibitor, single point].

Q: Which Potency does the source give for `O=C(NCCc1ccccc1)C1CCC(Cn2c(=O)c3ccccc3n(Cc3cccc(F)c3)c2=O)CC1` (stereo not drawn) here?
A: Its Potency is inconclusive: 14.1 µM [inhibitor, single point].

Q: For `Cc1c(N2C(=O)C(=O)/C(=C(/O)c3ccc(Cl)cc3)C2c2ccccc2)c(=O)n(-c2ccccc2)n1C` (stereo not drawn), which Potency is on record?
A: Its Potency is inconclusive: 11.2 µM [inhibitor, partial curve].

Q: For `Cc1nc2nc(-c3ccccc3)cn2nc1C`, which Potency is on record?
A: Its Potency is inconclusive: 31.6 µM [inhibitor, single point].

Q: For `CC1(C)NC(=O)N(CC(O)COc2ccccc2-c2ccccc2)C1=O` (stereo not drawn), which Potency is on record?
A: The Potency was “inactive”.

Q: For `CCOC(=O)c1c(NC(=S)Nc2ccccc2)sc(C)c1C`, which Potency is on record?
A: The Potency was inconclusive: 28.2 µM [inhibitor, single point].

Q: Which Potency does the source give for `COc1cc(Cl)c(C)cc1NC(=O)c1ccc(NS(=O)(=O)c2ccc(F)c(F)c2)cc1` here?
A: The Potency was active: 5.62 µM.

Q: For `COc1ccc(-c2csc(/C(C#N)=C/Nc3cc4oc5ccccc5c4cc3OC)n2)cc1`, which Potency is on record?
A: The Potency was inconclusive: 14.1 µM [inhibitor, single point].

Q: Which Potency does the source give for `Cc1cc(NC(=O)CSc2nc(C(C)C)nc3sc(C)c(C)c23)no1` here?
A: Its Potency is inconclusive: 28.2 µM [inhibitor, single point].

Q: With `CCCc1cc(C(=O)Nc2cc(Br)ccc2O)no1` as the compound, how does the Potency read?
A: Its Potency is “inactive”.

Q: With `COc1ccc(C(=O)OCc2cc3cccc(C)c3[nH]c2=O)cc1` as the compound, how does the Potency read?
A: The Potency was active: 10 µM.

Q: For `C/C(CCc1ccco1)=N\NC(=O)CNc1c(Br)cc(Br)cc1Br`, which Potency is on record?
A: The Potency was inconclusive: 2.82 µM [inhibitor, full curve, poor fit].

Q: For `COc1ccc(-c2noc(CSc3nnc(Cc4ccccc4)n3-c3ccc(Cl)cc3)n2)cc1`, which Potency is on record?
A: Its Potency is “inactive”.

Q: Which Potency does the source give for `CCCSc1nc(N)c(C#N)c(-c2ccc(C)cc2)c1C#N` here?
A: Its Potency is inconclusive: 28.2 µM [inhibitor, single point].

Q: With `O=C(O)c1cc(-c2ccco2)nc2ccc(Br)cc12` as the compound, how does the Potency read?
A: The Potency was active: 10 µM.

Q: Which Potency does the source give for `CC(C)(C)c1ccc(/C([O-])=C(/C(=S)NCc2ccco2)[n+]2ccccc2)cc1` here?
A: Its Potency is inconclusive: 28.2 µM [inhibitor, single point].

Q: Which Potency does the source give for `CC(=O)c1cccc(NC(=O)c2ccc(C(=O)Nc3cccc(C(C)=O)c3)nc2)c1` here?
A: The Potency was inconclusive: 10 µM [inhibitor, partial curve].

Q: With `CN(C)c1ccc(/C=N/Nc2ccc(-n3ccnc3)nn2)cc1` as the compound, how does the Potency read?
A: Its Potency is “inactive”.

Q: With `CC(=O)c1ccc(C)cc1OC(=O)c1cccc(F)c1` as the compound, how does the Potency read?
A: Its Potency is “inactive”.

Q: For `COc1cccc(-c2ccc(C#N)c(SCC(=O)NCCc3cccc(Cl)c3)n2)c1`, which Potency is on record?
A: The Potency was active: 11.2 µM.

Q: Which Potency does the source give for `Cc1ccc(NCc2nnc(SCC(=O)Nc3ncc(C)s3)n2CC2CCCO2)c(C)c1` (stereo not drawn) here?
A: The Potency was “inactive”.

Q: Which Potency does the source give for `Cc1ccc(S(=O)(=O)c2nc(C)c3c(n2)CCC3)cc1` here?
A: Its Potency is “inactive”.

Q: With `O=C(CSc1nc2ccccc2c(=O)[nH]1)Nc1ccc(C(=O)O)cc1` as the compound, how does the Potency read?
A: The Potency was inconclusive: 2.82 µM [inhibitor, single point].

Q: Which Potency does the source give for `CCc1cc(=O)oc2cc(C)cc(OC(C)C(=O)O)c12` (stereo not drawn) here?
A: Its Potency is inconclusive: 28.2 µM [inhibitor, single point].

From PubChem BioAssay AID1457 (National Center for Advancing Translational Sciences (NCATS), 2008)
